56 compounds from article PMC4336329 (PLoS ONE, 2015) can be followed below.

The campaign covered roughly 310,000 compounds. About 14,000 (4.5%) showed an effect of 50% or more. Effects have a minus sign here. Some of the results follow.
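Also: peak tail current of the secondary pulse compared with the same well before compound.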

Chain of human ether-à-go-go-related gene (hERG) potassium channel (Q12809 whole entry, looked up): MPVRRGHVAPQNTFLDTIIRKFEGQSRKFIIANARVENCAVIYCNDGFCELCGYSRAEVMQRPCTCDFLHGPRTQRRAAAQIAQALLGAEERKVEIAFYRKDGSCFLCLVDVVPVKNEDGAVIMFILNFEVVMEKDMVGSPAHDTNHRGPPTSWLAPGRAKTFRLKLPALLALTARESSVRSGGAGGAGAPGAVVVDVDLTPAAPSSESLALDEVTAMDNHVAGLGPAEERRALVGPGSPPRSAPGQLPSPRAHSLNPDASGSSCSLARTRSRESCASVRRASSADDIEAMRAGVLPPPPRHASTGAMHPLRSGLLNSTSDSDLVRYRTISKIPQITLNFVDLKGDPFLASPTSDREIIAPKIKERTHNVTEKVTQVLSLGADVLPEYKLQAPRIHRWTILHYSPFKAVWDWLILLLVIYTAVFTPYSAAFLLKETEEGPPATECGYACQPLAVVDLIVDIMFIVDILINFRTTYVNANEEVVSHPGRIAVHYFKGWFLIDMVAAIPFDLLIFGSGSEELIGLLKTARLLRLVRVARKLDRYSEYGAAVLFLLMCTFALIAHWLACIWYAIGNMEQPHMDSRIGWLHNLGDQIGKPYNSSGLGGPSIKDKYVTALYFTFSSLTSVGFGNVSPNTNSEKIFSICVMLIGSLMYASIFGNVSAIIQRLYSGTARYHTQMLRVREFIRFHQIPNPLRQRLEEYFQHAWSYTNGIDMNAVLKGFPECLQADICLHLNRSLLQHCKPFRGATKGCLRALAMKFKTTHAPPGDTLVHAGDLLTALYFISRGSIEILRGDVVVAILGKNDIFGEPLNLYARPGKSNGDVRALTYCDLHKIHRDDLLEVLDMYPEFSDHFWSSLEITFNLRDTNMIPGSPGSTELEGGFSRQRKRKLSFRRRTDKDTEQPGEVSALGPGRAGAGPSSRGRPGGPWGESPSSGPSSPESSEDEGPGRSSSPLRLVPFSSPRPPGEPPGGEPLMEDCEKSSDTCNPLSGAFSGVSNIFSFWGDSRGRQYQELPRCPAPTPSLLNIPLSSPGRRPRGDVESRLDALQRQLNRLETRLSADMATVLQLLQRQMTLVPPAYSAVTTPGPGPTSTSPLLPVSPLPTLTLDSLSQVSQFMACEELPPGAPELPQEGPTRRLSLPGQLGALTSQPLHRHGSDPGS

This assay concerns the target human ether-à-go-go-related gene (hERG) potassium channel (human, UniProt Q12809). In words: primary screen, population patch clamp on CHO cells stably expressing hERG.
Regarding `O=C(CN1C(=O)NC2NC(=O)NC21)N/N=C/c1ccccc1O` (centres unmarked), the “hERG current change (%, negative = inhibition) at 10uM” value was determined as 30.6%. Next, `Cc1sc2nc(CN3CCOCC3)nc(N3CCOCC3)c2c1C.O=C(O)C(=O)O`: -10.8%; `CCOC(=O)C(C)Oc1cccc2c(=O)n(CC(=O)Nc3cccc(OC)c3)ccc12` (centres unmarked): -19.8%; `Cc1ccc(S(=O)CCNC(=O)Cc2ccc(Cl)cc2)cc1` (centres unmarked): -8.83%. Under `Cc1ccc(CN(C(=O)Cn2nnc3ccccc32)C(C(=O)NCc2ccco2)c2cccs2)cc1` (centres unmarked) stands -23.1%. Under `O=C(CN(Cc1ccccc1F)C(=O)c1ccco1)NCc1ccc(F)cc1` stands -50.7%. Take `COC(=O)CNc1cc(S(=O)(=O)N2CCCCC2)ccc1Oc1ccc(C(=O)OC)cc1`: the “hERG current change (%, negative = inhibition) at 10uM” value came to 7.36%. Next, `CN(NS(C)(=O)=O)c1ncc(C(F)(F)F)cc1Cl`: 9.11%; `CCN(CC)S(=O)(=O)c1ccc(NC(=O)C2c3ccccc3Oc3ccccc32)cc1`: 3.37%. Next, `Cc1ccc(C(=O)N2CCN(c3ccc(NC(=O)Cc4ccccc4)cc3)CC2)cc1`: -71.5%. Take `COc1cccc(C(=O)NC2=NCCS2)c1OC`: the “hERG current change (%, negative = inhibition) at 10uM” value came out at 1.99%. Under `Cc1ccc(-n2c(-c3ccccc3)cc(=O)nc2C)cc1` stands 0.986%; under `Cc1cc(Cl)ccc1OC(C)C(=O)Nc1ccc([N+](=O)[O-])cn1` (centres unmarked), -75.9%; under `O=C1CC(N2CCCc3ccccc32)C(=O)N1c1ccccc1` (centres unmarked), 7.81%. Consider `Cc1ccc(NC(=O)CSC(C)C(=O)NCCc2ccccn2)cc1` (centres unmarked), for which the “hERG current change (%, negative = inhibition) at 10uM” value is 14.3%. As to `O=C(NC1(C(F)(F)F)N=C2SCCN2C1=O)c1ccccc1` (centres unmarked), the “hERG current change (%, negative = inhibition) at 10uM” value is recorded as 16.5%. For the compound `Cc1ccc2nc3c(cc(C(=O)NCCCn4ccnc4)n3C)c(=O)n2c1`, the “hERG current change (%, negative = inhibition) at 10uM” value was -34.1%. Under `Br.COc1ccc(C(=O)Cn2c(=N)n(C)c3ccccc32)cc1` stands -28.8%; under `Cc1nn(Cc2ccccc2)c(C)c1NC(=O)CCCn1nc(C)c([N+](=O)[O-])c1C`, -16.3%. In the case of `COC(=O)C(=C/C=C/N1CCOCC1)C(=O)OC`, the “hERG current change (%, negative = inhibition) at 10uM” value turned out to be 12.6%. As for `CCCCC(C(=O)NC1CCCC1)N(C(=O)c1snc(C(N)=O)c1N)c1ccc(F)cc1` (centres unmarked), the “hERG current change (%, negative = inhibition) at 10uM” value came to 0.15%. Next, `O=[N+]([O-])c1ccccc1/C=C/CN1CCCCC1CO` (centres unmarked): 5.49%; `Cc1ccccc1N1CCN(C2CCCN(C(=O)c3cn4c(C)cccc4n3)C2)CC1` (centres unmarked): -58.1%; `CCN(CC)c1ccc([N+](=O)[O-])c2cccnc12`: -11%.

For the compound `Cc1ccccc1NC(=O)CSc1nc(N)c(C#N)cc1C#N`, the “hERG current change (%, negative = inhibition) at 10uM” value is 0.675%. On to `O=C(O)CSc1ccc(S(=O)(=O)N2CCCC2)cn1`, for which the “hERG current change (%, negative = inhibition) at 10uM” value is given as -1.86%. Under `CCOC(=O)/C(C#N)=C/c1c(N2CCN(CC)CC2)nc2c(C)cccn2c1=O` stands -24.1%.

Regarding `O=C(c1cccs1)c1no[n+]([O-])c1C(=O)c1cccs1`, the “hERG current change (%, negative = inhibition) at 10uM” value is -25.8%.

`Cc1sc2ncnc(OCC(=O)NCc3cccs3)c2c1C`: the “hERG current change (%, negative = inhibition) at 10uM” value turned out to be 6.03%. Next, `Cc1ccccc1C(=O)c1cccn1CC(=O)NCc1ccccc1`: 21.7%; `CCC(CCC(=O)Nc1cccc(C(=O)O)c1)C(=O)O` (centres unmarked): 9.97%. Next, `COC(=O)c1cn(Cc2cccc(C)c2)nn1`: -7.11%; `CNC(=O)C(=O)NCC(c1cccs1)S(=O)(=O)c1ccc(C)cc1` (centres unmarked): 12.8%. Next, `COc1ccc(-c2nnc(NC(=O)c3c(OC)cccc3OC)s2)cc1`: 19.8%; `Nc1c(C(=O)CSc2nnc(N3CCOCC3)n2-c2cccc(F)c2)c(=O)[nH]c(=O)n1C1CC1`: 18.2%; `CCOC(=O)c1c(COc2ccccc2)oc2ccc(O)cc12`: -10.7%.

In the case of `COc1cc(CCNC(=O)CCCn2c(=O)c3cccn3c3cccnc32)cc(OC)c1OC`, the “hERG current change (%, negative = inhibition) at 10uM” value is -12.7%. Next, `CCOc1ccc(CCNC(=O)CN2CCN(Cc3ccc(F)cc3)C2=O)cc1OCC`: 1.53%. For the compound `CCCOC(=O)c1ccc(NC(=O)c2ccccc2[N+](=O)[O-])cc1`, the “hERG current change (%, negative = inhibition) at 10uM” value is reported as -2.89%. Under `O=C(Cn1nc(-c2ccccc2)ccc1=O)Nc1ccc(NC(=O)c2ccccn2)cc1` stands 6.1%; under `Cc1ccc(C)c(S(=O)(=O)N2CCN(C(=O)CCc3nc4ccccc4c(=O)[nH]3)CC2)c1`, -47.1%. For `CC(Oc1ccccc1)C(=O)OCC(=O)Nc1sccc1C(N)=O` (centres unmarked), the “hERG current change (%, negative = inhibition) at 10uM” value is recorded as -17.2%. Under `CC1CC1C(=O)Nc1nc(-c2ccc(Cl)s2)cs1` (centres unmarked) stands 24.9%. Under `COc1ccc(C(C(=O)NC2CCCCC2)N(C(=O)c2cccs2)c2ccc3c(c2)OCO3)cc1` (centres unmarked) stands 14.2%; under `CC(C)CN(Cc1cc(=O)oc2cc(-c3ccccc3)c(O)cc12)CC(C)C`, 50%.

For the compound `O=C1Nc2ccccc2/C1=N/c1sc2c(c1C(=O)NCCc1ccccc1)CCCC2`, the “hERG current change (%, negative = inhibition) at 10uM” value is given as 0.909%. Under `COc1ccccc1CNN.Cl` stands 28.2%; under `Cc1ccccc1C(=O)Nc1ccc(Cl)cn1`, 6%. Under `O=C(COC(=O)c1cc[n+]([O-])cc1)Nc1ccc(SC(F)F)cc1` stands -18.7%; under `CCCCOc1ccc(/C=C2/Sc3ccccc3C2=O)cc1`, 9.77%; under `CC(C)(Oc1ccc(Cl)cc1)C(=O)NC1CCN(Cc2ccccc2)CC1`, -70.4%.

Consider `CCn1c(SCc2nc3ccccc3nc2C)nnc1-c1cccs1`, for which the “hERG current change (%, negative = inhibition) at 10uM” value is recorded as -12.3%. For `Cc1cccc(NS(=O)(=O)c2cccc(C(=O)N3CCN(c4ccccn4)CC3)c2)c1`, the “hERG current change (%, negative = inhibition) at 10uM” value was -22.7%. In the case of `COc1ccc(-c2cc(NC(=O)c3cncn3-c3ccccc3)ccc2OC)cc1`, the “hERG current change (%, negative = inhibition) at 10uM” value is on record as 5.97%. For `CCOc1cc(NC(=O)C2CCCCC2)c(OCC)cc1NC(=O)c1ccccn1`, the “hERG current change (%, negative = inhibition) at 10uM” value is reported as 15.5%. Take `CCOC(=O)c1ccc(S(=O)(=O)N2CCC(C(=O)NCC3CCCCC3)CC2)cc1`: the “hERG current change (%, negative = inhibition) at 10uM” value was -0.177%.
